The results in this text go back to PubChem BioAssay AID1508623 (National Center for Advancing Translational Sciences (NCATS), 2021).

Among all 48,000 compounds or so, about 450 (0.94%) were called active. About 19% were inconclusive and are not listed. Calls come from the whole dose curve; as a rule, active = well fitted inhibition curve with a large enough effect; inconclusive = small, poorly fitted or top-dose-only effect; inactive = no such curve, though single readings can be large or run the other way. The list shows a part of the results.

This assay is described as follows: Primary qHTS for Identification of Small Molecule Inhibitors of Huntingtin Promoter Activity. Note: nearly all actives have a fitted effect of over 50% in size. Particulars: HEK293 HTT promoter firefly luciferase reporter (activity 0% = vehicle and -100% = no light), 24 h; series mostly up to 57.5 µM; activity change, negative = inhibition: at the top concentration. The essentials:
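HEK293 Fluc reporter, 2,500 cells/well, 24 h pre-culture; cpds up to 57.5 uM final, 24 h 37 degrees C; Dual-Glo, 10 min RT; normalized vehicle = 0%, zero RLU = -100%.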
A general note: qHTS replaces the single test concentration by a dilution series.
On to `CCOc1ccc(CCNC(=O)CN2C(=O)COc3ccc(S(=O)(=O)N4CCCC4)cc32)cc1`, for which the “activity change, negative = inhibition” value was inactive: -25.5%.
On to `Cc1cc(CN2CCN(c3c(Br)cnc4nc(-c5ccc(N6CCN(C)CC6)cc5)[nH]c34)CC2)no1`, for which the “activity change, negative = inhibition” value was inactive: -2.71%.
The value for `CCn1c(=N)c(C(=O)NCc2ccccc2)cc2c(=O)n3cccc(C)c3nc21` was inactive: -3.31%.
The result for `Cc1cccc(-c2nc(C)c(CCNC(=O)C(=O)Nc3ccccc3C#N)s2)c1` reads inactive: -15.1%.
The result for `COC(=O)c1ccc2c(=O)n(CCCCCC(=O)NCCc3ccc(Cl)cc3)c(=O)[nH]c2c1` reads inactive: -14.9%; that for `Cc1ccc(Cn2ccnc2SCC(=O)NCc2ccccc2Cl)cc1`, inactive: -16.6%; that for `N#Cc1c(C(F)(F)F)cc(-c2ccc(F)cc2)nc1SCC(=O)Nc1ccccc1`, inactive: -13.8%.
`Cc1ccccc1NC(=O)CSc1nc2ccccc2c2nc(CCn3cncc3C)nn12`: the “activity change, negative = inhibition” value was inactive: 11.5%.
The result for `Cc1ccc(CNC(=O)C(C)n2nc(C)n3c(cc4sccc43)c2=O)cc1` (stereo not drawn) reads inactive: 6.63%; that for `O=C(CCS(=O)(=O)c1ccc(Br)cc1)Nc1ccc(F)cc1F`, inactive: -4.69%.
The result for `Cc1ccc(-c2nc3ncccn3c2Nc2ccc3c(c2)OCCO3)cc1` reads inactive: 6.02%.
The value for `CCc1ccc(CNc2ccc3c(c2)ncn3C(C)(C)C)cc1` was inactive: 40%.
For `COc1cccc2c1cc1c(=O)n(CC(=O)N3CCN(c4ccccc4)CC3)nc(C)n12`, the “activity change, negative = inhibition” value is inactive: -0.738%.
The result for `O=C1CC(c2nc(-c3ccccc3)no2)CN1c1ccccc1` (stereo not drawn) reads inactive: 0%.
The value for `CCc1nc2ccc(C(=O)NCc3cc(OC)ccc3OC)cc2nc1CC` was inactive: -5.42%; that for `Cc1cccc2sc(N(CCN(C)C)C(=O)c3ccc4c(c3)OCCO4)nc12` was inactive: -25.1%; that for `COc1ccc(Cn2c(=O)n(Cc3ccco3)c(=O)c3oc4ccccc4c32)cc1` was inactive: -0.963%.
The result for `Cc1cc(OC(C)C(=O)Nc2cccc(-c3nc4ccccc4o3)c2)cc(C)c1Cl` (stereo not drawn) reads inactive: 29.1%.
As to `CC(=O)N1CCc2cc(S(=O)(=O)CCC(=O)Nc3ccc(C)cc3Br)ccc21`, the “activity change, negative = inhibition” value is inactive: -21.4%.
In the case of `COc1ccc(-c2nc(CS(=O)(=O)CC(=O)NCc3ccccc3Br)c(C)o2)cc1`, the “activity change, negative = inhibition” value was inactive: -15.1%.
The result for `Cc1ccc(CNC(=O)CCCn2c(=O)c3ccccc3n(CC(=O)Nc3ccc(C)cc3)c2=O)cc1` reads inactive: -1%.
Turning to `CCC(C(=O)Nc1ccc(C)c(C)c1)n1c(=O)c(C(F)(F)F)nc2ccccc21` (stereo not drawn), the “activity change, negative = inhibition” value is inactive: -5.36%.
Turning to `CCOC(=O)c1c(NC(=O)COc2ccc(Cl)cc2C)sc2c1CCCCC2`, the “activity change, negative = inhibition” value is inactive: 2.35%.
The result for `Cc1ccc(CNC(=O)CS(=O)(=O)c2cccc3nsnc23)cc1` reads inactive: 1.73%; that for `COc1cccc(NC(=O)Cn2c(=O)n(CCC(=O)NCCc3ccc(Cl)cc3)c(=O)c3ccccc32)c1`, inactive: -13.1%; that for `COc1ccc(CCNC(=O)Cc2c(C)c3cc4c(C(C)(C)C)coc4c(C)c3oc2=O)cc1`, inactive: -9.2%.
The value for `COc1cc(-c2noc(-c3ccc(NCC4CCCO4)c([N+](=O)[O-])c3)n2)cc(OC)c1OC` (stereo not drawn) was inactive: -16%.
For `Cc1ccc(C)c(Nc2cc(C(=O)NC3CCCC3)c3ccccc3n2)c1`, the “activity change, negative = inhibition” value is inactive: 7.46%.
The value for `COc1cc(NC(=O)CSc2nc3ncccc3o2)cc(OC)c1` was inactive: -5.99%.
The result for `Cl/C(=C\n1cncn1)c1ccc(Cl)cc1Cl` reads inactive: 4.49%; that for `COc1cc(NC(=O)CN2CCN(c3ccc(F)cc3)CC2)cc(OC)c1`, inactive: -17.7%.
The value for `Cc1nn(CC(=O)NC2CCC(C)CC2)c(=O)c2c1sc1ccccc12` (stereo not drawn) was inactive: -1.83%; that for `CCn1cc2nc(SCC(=O)Nc3cc(OC)cc(OC)c3)n(Cc3ccc(Cl)cc3)c(=O)c2n1` was inactive: -22.8%; that for `Cc1ccc2oc(-c3ccc(NC(=O)CCC(=O)O)cc3)nc2c1` was inactive: 18%.
With `Cc1ccc(NC(=O)CCc2c(C)nc3c(-c4ccc(F)cc4)c(C)nn3c2C)cc1F`, the “activity change, negative = inhibition” value was inactive: -8.86%.
The value for `Cc1cc(C)c(Nc2ncnc3c2cnn3C)c(C)c1` was inactive: -25.3%; that for `O=C(/C=C/c1ccccc1Cl)N1CCC(c2nc3ccccc3o2)CC1` was inactive: -20%; that for `CCOc1ccc(NC(=O)c2sc3nc4n(c(=O)c3c2C)CCC4)cc1` was inactive: 4.75%.
The value for `COC(=O)N1CCCc2cc(S(=O)(=O)NCc3ccccc3)ccc21` was inactive: -19.1%; that for `Cc1cccc(C)c1NC(=O)c1ccc2c(c1)nnn2C1CCCC1` was inactive: -4.8%.
The value for `CCOc1cc(-c2ccc(OC(=O)c3ccccc3Cl)c(OC)c2)cc(=O)c2c(C)oc(C)c12` was inactive: -5.96%; that for `COc1ccc(-c2nn3c(=O)cc(CN4CCN(C(=O)/C=C/c5ccccc5)CC4)nc3s2)cc1` was inactive: -15.3%.
Consider `COc1ccc(C2CC(=O)Nc3c2c(=O)[nH]c2nc4ccccc4n32)cc1` (stereo not drawn), for which the “activity change, negative = inhibition” value was inactive: -14.8%.
The result for `Cc1cc(C)cc(NC(=O)CSc2nc3c(c(=O)[nH]2)CN(Cc2ccc(F)cc2)CC3)c1` reads inactive: -31.8%.
The value for `CCn1cc(C(=O)Nc2cccc(Cl)c2)c2cc(OC)c(OC)cc2c1=O` was inactive: -19.7%.
The result for `Cc1ccccc1COC(=O)c1nn(-c2ccccc2)nc1N` reads inactive: 29.8%.
As to `COc1ccccc1N1CCN(C(=O)Cn2c(=O)n3nc(-c4cccc(F)c4)nc3c3ccccc32)CC1`, the “activity change, negative = inhibition” value is inactive: 10.7%.
The value for `CCNC(=O)c1ccc(NC(=O)N2CCCCc3ccccc32)cc1` was inactive: -11.3%; that for `CCCCN(CC)CCNC(=O)C1CCN(S(=O)(=O)c2cccc3nsnc23)CC1` was inactive: 1.54%.
The result for `CCc1nn(CC(=O)N2CCN(c3ccc(OC)cc3)CC2)c(=O)c2cc3sccc3n12` reads inactive: -12.5%.
The value for `CC[C@@]1(c2ccccc2)NC(=O)N(C)C1=O` was inactive: -2.65%.
As to `CC(CCc1ccccc1)NC(=O)Cn1ncc2c3ccccc3n(Cc3ccccc3F)c2c1=O` (stereo not drawn), the “activity change, negative = inhibition” value is inactive: 15.4%.
The result for `CCC(=O)C1=C(c2ccc(F)cc2)N(C(=O)CC)n2c(nnc2-c2ccc(OC)cc2)S1` reads inactive: -5.78%; that for `O=C(CSc1nccn1-c1cccc(Cl)c1)Nc1ccc2c(c1)OCO2`, inactive: -18.2%; that for `COc1ccc(-c2cnc(C)o2)cc1S(=O)(=O)Nc1ccc(NC(C)=O)cc1`, inactive: -5.7%.
`O=C(CCn1c(=O)c2cccn2c2cccnc21)N1CCN(c2ccccc2)CC1`: the “activity change, negative = inhibition” value was inactive: -1.01%.
The result for `Cn1c(=O)oc2cc(S(=O)(=O)CCC(=O)N3CCN(c4ccccc4F)CC3)ccc21` reads inactive: -14% [at 11.5 µM]; that for `CCn1c(SCC(=O)Nc2ccccc2C(=O)OC)nc2ccsc2c1=O`, inactive: -7.46%.
For `Cc1ccc(-c2cc(C(=O)Oc3ccc(C#N)cc3)no2)cc1`, the “activity change, negative = inhibition” value was inactive: 31.9%.
The value for `CCC(=O)NNc1ncnc2c1cnn2-c1ccc(C)c(Cl)c1` was inactive: -30.7%.
The result for `O=C(CSc1nc(=O)[nH]c2c1CCC2)NCc1ccccc1Cl` reads inactive: -4.17%; that for `CCN(Cc1ccccc1)C(=O)Cn1c(=O)n(-c2ccccc2)c(=O)c2c1c1cc(C)ccc1n2C`, inactive: -15.1%.
The result for `Cc1nc2ccccc2c(=O)n1-c1ccc(NC(=O)c2ccccc2[N+](=O)[O-])cc1` reads inactive: -1.02%; that for `CCc1ccc(CSc2nc(-c3ccccc3F)nc3c2Cc2c(CO)cnc(C)c2O3)cc1`, inactive: -7.82%.
In the case of `COc1ccc(OC(=O)c2nc(SCc3ccccc3F)ncc2Cl)cc1`, the “activity change, negative = inhibition” value was inactive: -2.61%.
Regarding `Cc1ccc(NC(=O)Cn2c(=O)n(Cc3ccco3)c(=O)c3oc4ccccc4c32)cc1C`, the “activity change, negative = inhibition” value was inactive: -1.94%.
For the molecule `CCC(C)NC(=O)c1nn(-c2ccc(C)cc2)nc1CO` (stereo not drawn), the “activity change, negative = inhibition” value is inactive: -2.32%.
The value for `Cc1cccc(CN2C(=O)c3ccccc3Sc3ccc(C(=O)NC4CCCCC4)cc32)c1` was inactive: -9.06%; that for `Cc1cccc(CNC(=O)C2CCC(CNS(=O)(=O)c3ccc4c(c3)CCCC(=O)N4)CC2)c1` (stereo not drawn) was inactive: -14.2%.
On to `Cc1cc(Nc2ccccc2C)c2cccc(C)c2n1`, for which the “activity change, negative = inhibition” value is inactive: -11.2%.
On to `COCCCN1CCC(NC(=O)c2cc(Cl)c(N)c3c2OCC3)CC1`, for which the activity change, negative = inhibition result is “inactive”.
The value for `CCC(C)n1c(SCC(=O)Nc2ccccc2C(=O)OC)nc2ccsc2c1=O` (stereo not drawn) was inactive: -6.97%.
The result for `CCc1ccc(NC(=O)C2CCCN(S(=O)(=O)c3ccc4c(c3)oc(=O)n4C)C2)cc1` (stereo not drawn) reads inactive: -16.9%.
The value for `Cc1ccc(C(=O)NCC(c2ccc(Cl)cc2)N2CCCCC2)cc1` (stereo not drawn) was inactive: -17.6%.
For `COCCCNC(=O)CCCn1c(SCC(=O)c2ccc(Br)cc2)nc2c(sc3ccccc32)c1=O`, the “activity change, negative = inhibition” value was inactive: -3.52%.
The result for `Cc1ccc(Cl)c2sc(NC(=O)c3ccc(S(=O)(=O)N4CCCC4)cc3)nc12` reads inactive: -11.2%; that for `COc1cccc(CNC(=O)c2cccc(N3CCCS3(=O)=O)c2)c1`, inactive: -29.3%.
The value for `Cc1ccc(C)c(NC(=O)CSc2nc3ccccc3nc2N2CCOCC2)c1` was inactive: -1.18%; that for `CC(C)(C)OC(=O)N1CCC(c2c(C(=O)N3CCCCC3)cnn2-c2ccc(F)cc2)CC1` was inactive: -7.5%.
The value for `COC(=O)c1ccc(NC(=O)c2cnn(-c3ccc(Cl)cc3)c2C2CCN(C(=O)OC(C)(C)C)CC2)cc1` was inactive: 5.5%.
Take `COc1ccccc1C(=O)Nc1cccc(OCc2cc(=O)n3ccccc3n2)c1`: the “activity change, negative = inhibition” value was inactive: 22%.
The value for `Cc1cc(C)c(NC(=O)c2cc(C)nc3c2c(C)nn3-c2cccc(F)c2)c(C)c1` was inactive: -2.48%; that for `Cc1cc2oc(C(=O)N(Cc3ccc(Cl)cc3)Cc3ccco3)c(C)c2cc1Cl` was inactive: -25.6%; that for `CCc1ccc(-c2nn(-c3ccc(OC)cc3)c3c2cnc2ccc(OC)cc23)cc1` was inactive: -10.1%.
The result for `O=C(CSc1nccn1Cc1ccc2c(c1)OCO2)Nc1ccccc1F` reads inactive: -15.7%.
On to `CCCn1c(=O)sc2cc(NC(=O)c3ccccc3Cl)ccc21`, for which the “activity change, negative = inhibition” value is inactive: -3.19%.
The result for `COc1cc(NC(=O)CCn2nc(C)cc2C)cc(OC)c1OC` reads inactive: 4.19%; that for `CCC1CCCCN1CCCNC(=O)c1cn(C)c2ccc(S(=O)(=O)N(C)C3CCCCC3)cc2c1=O` (stereo not drawn), inactive: -22.8% [at 11.5 µM].
Turning to `COc1cccc(N2CCN(C(=O)c3cccn3-c3nnc(N4CCCCC4)s3)CC2)c1`, the “activity change, negative = inhibition” value was inactive: -9.68%.
The value for `COc1cc(/C=C(/C#N)c2nc(-c3cc4ccccc4oc3=O)cs2)ccc1O` was inactive: 18%; that for `Cc1cccc(NC(=O)CSc2nc3c([nH]c4ccccc43)c(=O)n2-c2cc(C)cc(C)c2)c1` was inactive: -4.09%.
Take `Cc1c(Cl)cccc1NC(=O)Nc1c[nH]c(=O)[nH]c1=O`: the “activity change, negative = inhibition” value was inactive: 6.86%.
Take `CC1CCCCN1C(=O)CSc1nc(-c2ccccc2)no1` (stereo not drawn): the “activity change, negative = inhibition” value was inactive: 56.5%.
As to `CSc1cccc(-n2nnc(-c3nsc(NC(=O)c4cccs4)n3)c2C)c1`, the “activity change, negative = inhibition” value was inactive: 12.1%.
The result for `CCOC(=O)c1ccccc1NC(=O)CSc1nc(=O)[nH]c2c1CCCC2` reads inactive: -5.53%; that for `CCc1ccc2occ(CC(=O)N(Cc3ccccc3)C3CCS(=O)(=O)C3)c2c1` (stereo not drawn), inactive: -16.7%.
The result for `COc1ccc(-n2c(C)nc3c(cnn3-c3ccc(C)c(C)c3)c2=O)cc1Cl` reads inactive: -21.5%; that for `COc1cccc(CNC(=O)Cn2c(=O)ccc3cc(S(=O)(=O)N4CCCC4)ccc32)c1`, inactive: -0.132%.
